This is one part of the list.
What follows are sequences tested on PfSIP2 AP2 domain 1 (GST-tagged) (assay: gcPBM binding intensity (ln(normalized median fluorescence intensity)); higher = stronger DNA binding).
Procedure, shortened: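 Binding intensity is defined as the maximum Masliner-normalised natural-log median intensity across replicate spots for either probe orientation. It was measured on an Agilent 4 × 180k array of primer-extended double-stranded 36-bp intergenic genomic probes and negative controls, to which GST-tagged P. falciparum DNA-binding domains made in E. coli were applied for 1 h in 1× PBS with 1% milk, 0.2 mg/ml BSA, 0.5% salmon testes DNA and 0.03% Triton X-100. Detection was by Alexa488 anti-GST antibody and scanning at 488 nm.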

Sequence	gcPBM binding intensity (ln)
GGAAAGACAGTTCACAGTACCCAGGAAATCTACGGA [XGTACX_site1996]	6.88
TTATTAAATATGTACACACGTACATTTTATAAATGA [CACACA_site2387]	7.3
TATATATATATTTAGTGTACTTAAAAAAAATAATAA [XGTACX_site5454]	8.47
ATAATAATAAAATATATATACAAAGGTGAAATTATA [TGCATGCA_negctrl_site197]	7.17
TATTTTTTTTTCCATTGTACATTTTTGATATTTTTC [XGTACX_site744]	6.79
TTTTATTATAATAATTGTACAAAAATTATTTAATAT [XGTACX_site6054]	6.9
TTAATTTATTATCTTTGTACACAATTAAAAAAAAAA [XGTACX_site3469]	6.78
ATAAATATACATTATACCGACCATGTGGATATTATA [XGTACX_negctrl_site241]	6.93
AAAAAAAAAAAAAAAAGTACAAGCATTGCGTTTTAA [XGTACX_site6075]	7.5
AGAAAAAAAAAAAAAAAAATATATATATATATATAT [TGCATGCA_negctrl_site411]	8.98
AAAAAAAAAAAAAAAACACACATACACGCACGCACA [CACACA_site7569]	7.94
GTATATATATACCATTGTACTTTCGTAAAAATATTT [XGTACX_site4846]	7.12
TTTTGGTTTTGTTCTACACACATAAAAAAAAAAAAG [CACACA_site2276]	7.18
ATATATCAATATGGAATATATATATATATATATATA [TGCATGCA_negctrl_site502]	9.68
TTTCTATTTATTAATACATGCAAAATAAAGTAAAGT [TGCATGCA_site209]	7.44
ATATATATAAATAAATGTACATAAATAATATATTAT [XGTACX_site5419]	7.52
TATATATATATATATATATTTATGTATTTATTTAAT [TGCATGCA_negctrl_site179]	9.49
TTATTTTTATATTTTAATTTTAAAAAAATTTTAATT [CACACA_negctrl_site777]	6.74
ATTATACATATTATATGTACATATATAAATAAATAA [XGTACX_site7076]	7.18
ATTTTTTATGTTAATGCATGCTCATGTGTATTTCAT [TGCATGCA_site751]	7.05
AAATATAACATCATCACACACATATACTTTATATGC [CACACA_site1126]	7.01
AGCTTCATATTATGGAGTACTATTAAAAATAAATAA [XGTACX_site2649]	6.98

Sequence	gcPBM binding intensity (ln)
TAATTAGATTATTTTTGTACATATTATTATAGGTTA [XGTACX_site2077]	6.93
AGATATTATAAAATATGTACATATATATATATATAT [XGTACX_site2088]	9.12
AAAGTAATAATGATTTGTACATATATATATATATAT [XGTACX_site8821]	9.09
TTATCTTTTTTCGTTTGTACGTAACCATATTACTAT [XGTACX_site8853]	7.11
ATGCAAATGTGCATCACACACACTAATGGGTATGTA [CACACA_site2893]	7.47
GGAATATATATACATACACACATATATATATATATA [CACACA_site1666]	9.52
AAAAATAATTATTCGTGTACAAAAAAAAAAATATAA [XGTACX_site439]	7.09
TATAAAATAAATTGTGCACACATATTTATAAATATG [CACACA_site2330]	9.39
TATATGGAAAATTAAAGTACTAAAGAATAAATAGAA [XGTACX_site8796]	7.2
TATAGATACATATACACACACACACCGACATATATA [CACACA_site9138]	7.11
AATAATAGAAGCACCCACCCACCACCACCCACACAT [CACACA_negctrl_site1033]	8.5
GAGAAACTTGTTTAAACATGCACAAAAAAAAAAAAA [TGCATGCA_site340]	7.12
ACGATGAATATGTAAAGTACGCAAATGTAACAATAT [XGTACX_site728]	7.19
GTAGTTACATATAGGGTGCTCCAATAGTTGACCTCG	8.76
AAATAAAAAAAGGGAACATGCAATATGTACAAATAT [TGCATGCA_site869]	7.01
TCATAGGTTCAAAAGGGTACATTAATACATACATAT [XGTACX_site2236]	6.95
AGCATTTTTCATTTTGCACACATGTTTTATGGGTAT [CACACA_site5839]	7.48
CATATATATTGATATGCACACCTATGTATTGATGTA [CACACA_site8269]	8.47
TCTTTTTTCTTTTTTTCACACATTATTTTTTAAATA [CACACA_site5197]	7.22
AGCTGAAAAAAAAGCTTGCACACGTATTTGCTTTAT [CACACA_site1512]	6.87
CATATTATATTCTGCTTACACACATATATATATATA [CACACA_site3059]	9.09
TTTTTTTGTTATATCCTGCACTTCTTAACTATATTA [GTGCAC_site9807]	8.45

Sequence	gcPBM binding intensity (ln)
AATAATAAGAATAACGCATGCACATATAATATAGAA [TGCATGCA_site3]	7.37
AATATGTAGTAATCAAGTACTAATGTCTTAATTCGG [XGTACX_site308]	6.83
GTTTTTTATATAAGGTGGTCAACATTGTAATGTTAA [XGTACX_site3204]	7.37
AAATTACACATCCATACACACATATTTTTTTTAATT [CACACA_site5242]	7.02
ATATAAATTGGCAATAGTACATAAAGGCATAGAAAG [XGTACX_site2674]	7.31
GTATATATGTATATGTGTACACATATTCTTAACTCA [XGTACX_site309]	7.11
TTAACAAATAAACACACACACACACCCAAAAAAAAA [CACACA_site8068]	7.11
ATAAAAAAAAAAACAGTAAAATTATAATTATAATTA [TGCATGCA_negctrl_site356]	6.95
TAATGATAAATACATACACACAAAAAATGATATATA [CACACA_site7258]	6.86
TATATCCCTTAGAATACACACCCATATGAGTGTGAA [CACACA_site8965]	6.7
AATGTAAAATCTTCATATACATTTAAGTCTGTATTT [TGCATGCA_negctrl_site183]	6.74
ACAAAAATTAAATAAAGTACATTTTTAAAATACGTA [XGTACX_site3880]	6.8
AAAAGCACAAAAAATACACACACAAAAAATAAAAAA [CACACA_site8545]	6.95
TAAGACAATAAATGCTGTACAATTGAATATCTTGGA [XGTACX_site636]	6.65
TTATAAAAATTTAGTTGTACATGTCAAATTATCAAT [XGTACX_site7229]	6.92
TATTTTATTATTATTATTTCTTTATAGTGTATTCTA [CACACA_negctrl_site517]	6.67
TTTTCGTAACTGATTCAACACACAAAAGGGGGAAAA [CACACA_site8517]	8.07
AATATATAGCTAAAAACACACAAATATATACACATA [CACACA_site9203]	6.99
TATTTTATTATTATTATTAGTATGATTTCTTTATAG [CACACA_negctrl_site550]	6.64
GGATAGGCATAACATAGTACGTACAAATATATATAT [XGTACX_site454]	8.38
TTTTTTGTACCAAAAAAAAAAAAAAGAAAAAAAAAC [CACACA_negctrl_site1416]	7.13
AATGTGTTTTTTTTTTTTTTTTTTTTCAATCTCTAT [CACACA_negctrl_site794]	6.68

Sequence	gcPBM binding intensity (ln)
GAAAAAAGAAAAAAAAGTACACACATGTATATTAAT [XGTACX_site5265]	7.03
AATGTACACCCACCCACACACAAACAAATATATATA [CACACA_site5521]	7.62
TTTTTGTTTGAACACTGTACGTATAAATATAAAAGT [XGTACX_site6476]	7.89
TTATATTATGTTCAATCAAAAATTATTTTTAAAAAA [XGTACX_negctrl_site595]	6.97
TATATATAAAAACACACACACACACCCTATAATTAT [CACACA_site4063]	7.08
TTTCAAATTTAATACACACACAAGTATATATTTATC [CACACA_site3947]	6.94
TTGTGTTATCACACGAAGGGGATAAGACATAAATGT [TGCATGCA_negctrl_site368]	6.92
TATTTATTGTGACACTTATATTATTTTATGATTAAA [CACACA_negctrl_site525]	6.94
AATAATACATCCTTAGTGCAGAAATAAAAATTAAGC [GTGCAC_site9955]	8
TTTTCATTTGTGACAGTGCAAAATGTTATATTAAAA [GTGCAC_site9647]	8.57
TATAAAATGATGATATGTACTTATGTAGTTTTTTTA [XGTACX_site8711]	6.74
AATATATGGTTTCATGATATTAAATTCAAAATAATG [CACACA_negctrl_site318]	6.75
TGTATACATTCTGAATGTACGGAACACCTCATAACT [XGTACX_site7240]	6.94
TTTGTAATAAATAAGAGTACAAGTATGGTTCCACTA [XGTACX_site2579]	7.01
AAAAAAAAAAAAAACACACACATATAAATATAAATA [CACACA_site6972]	7.12
TGGAACCTTTAAAATACACACCCAAATCCTTTGAAA [CACACA_site7671]	6.62
ATTATTTGAAACTATTGTACATTTAAAAACATTTTT [XGTACX_site4896]	7.2
ATTGGACTATAAATAGGTACACATATATATATATAT [XGTACX_site7562]	9.63
TCATATATTCAAAAATTTAAAGTTAATAAAACTTGA [CACACA_negctrl_site1546]	6.58
ATATGAAAAAGAACTTGTACTAAAGTGGCATATTAT [XGTACX_site8520]	7.16
CATATATATTTTATTTGTACGTATAAAAAAACAAAA [XGTACX_site4253]	7.51
